# Laboratory results: the supplement of paper PMC11417369
# This is one part of the list.
# Test system: PfAP2-HC AP2 domain (GST-tagged)
# Test: gcPBM binding intensity (ln(normalized median fluorescence intensity)); higher = stronger DNA binding
# Procedure, shortened: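 Binding intensity values are the highest Masliner-normalised natural-log median intensity among replicate spots of either probe orientation. The binding step lasted 1 h in 1× PBS with 1% milk, 0.2 mg/ml BSA, 0.5% salmon testes DNA and 0.03% Triton X-100, using GST-tagged P. falciparum DNA-binding domains expressed in E. coli on an Agilent 4 × 180k array of primer-extended double-stranded 36-bp intergenic genomic probes plus negative controls. Alexa488 anti-GST antibody and a 488 nm scan detected bound protein.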
row,Sequence,gcPBM binding intensity (ln)
1,GTTAAAATTGGGGACGCATGTTCCTTTCCTTTTTTT [TGCATGCA_site1002],9.46
2,TTATAAATGTAACGATGTACTTTTAAAAGTTTCCTT [XGTACX_site109],9.48
3,ATAATTATTAAGAGAACATGCAAAATATATATGTTT [TGCATGCA_site503],9.63
4,AAAGCACCCAGGCACACACACAAAGGAAAAGAAAAA [CACACA_site232],11
5,ATATATATTTCTTAAAGTACATAATAATAAAAATAT [XGTACX_site8981],9.49
6,AATAGAATAATCCTTACACACACACGCGCACGAATA [CACACA_site6365],10.6
7,ATTTTATTTTTTTGTGATAATTGATTTATATATTGT [TGCATGCA_negctrl_site563],9.59
8,ATTATTTCTTTGTGATGTACAAATAAACATGTTGGT [XGTACX_site5636],9.7
9,TATATATTACATTGTTGTACATATATATTATATATA [XGTACX_site60],9.69
10,ATATATATATATATTTGTACGTATTATGTATTTTTT [XGTACX_site3530],10.3
11,AATACAATAAAATAGTGTACATATATATTATGTATA [XGTACX_site8258],9.83
12,TTAAAATATGATATATGTACATAATTACTAAAAACA [XGTACX_site276],9.6
13,GAATAAATTAAAAACGCATGTATCATTACTACATAA [TGCATGCA_site111],9.62
14,TTTATATTATACTATACATGCATATAATAAAGGTCA [TGCATGCA_site934],9.52
15,GGGTTCAATTTAAAGAGTACAAAAAATGTAGGTCAT [XGTACX_site5290],9.61
16,ATTTATCCAAAAAAATGTACAGGATAATTTGTTCAT [XGTACX_site7737],9.52
17,TATTATGCCTTTAATATACACACTAATATTTTTTTG [CACACA_site2045],9.79
18,TATAAAAATTAATATTGTACGTTTTATGAAAATAAA [XGTACX_site8237],9.22
19,CATAATACCTATAACACACACAATTATACATAAACT [CACACA_site7506],10.2
20,AATATATACATATATTGTACATATAGTTTCTTGCAT [XGTACX_site7871],9.74
21,TTTTTTTTTTTGTGGGTGCGTTTATAAAAACAGGAA,9.62
22,AGAGAGAAAGTTATAACATGCAACAATTTTTAGAAC [TGCATGCA_site96],9.67
23,TTTCCATATTGTGGATGTACGTTTTGAGGTTTTTAC [XGTACX_site3362],9.76
24,TTTTAATAAACAAAACGTACACATTATTATTATATA [XGTACX_site335],9.53
25,TTTGTAGTTTGCACATGTACACATTTCAAAATAAAG [XGTACX_site7568],9.5
